# In the BET-seq Pho4 binding data (Le et al. 2018):
# This is one part of the list. These are noisy estimates, calculated here from bound and input reads.
# Target: T1, Pho4 (S. cerevisiae) (UniProt P07270)
# T1 sequence: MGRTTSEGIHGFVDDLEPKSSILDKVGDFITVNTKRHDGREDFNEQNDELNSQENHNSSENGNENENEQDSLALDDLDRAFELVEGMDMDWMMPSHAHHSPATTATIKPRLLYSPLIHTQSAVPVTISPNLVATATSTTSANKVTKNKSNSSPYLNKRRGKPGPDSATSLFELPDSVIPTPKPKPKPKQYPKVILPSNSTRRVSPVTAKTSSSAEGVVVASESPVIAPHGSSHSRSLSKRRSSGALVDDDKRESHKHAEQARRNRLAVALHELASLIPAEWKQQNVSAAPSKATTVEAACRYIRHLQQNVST
# Assay: relative binding free energy (BET-seq); higher = weaker binding
# Settings: reference: library average
row,Sequence,relative binding free energy
1,TGATGCACGTGTGTGT,0.06 kcal/mol
2,TTTAGCACGTGTCTTA,-0.09 kcal/mol
3,AGGGTCACGTGAGGCC,0.31 kcal/mol
4,TATGTCACGTGATAGG,0.2 kcal/mol
5,TAAAGCACGTGATGTG,0.05 kcal/mol
6,CAGGTCACGTGGTAAT,0.14 kcal/mol
7,TATATCACGTGTTATT,0.2 kcal/mol
8,GGTAACACGTGAAAGG,0.39 kcal/mol
9,CATTGCACGTGAGGGC,0.23 kcal/mol
10,TGTTTCACGTGGGGAC,0.25 kcal/mol
11,GTGGGCACGTGCATTG,-0.09 kcal/mol
12,AAGCGCACGTGTGGCG,0.09 kcal/mol
13,ATTCGCACGTGTGTAG,-0.02 kcal/mol
14,CGGTTCACGTGGCATG,0.16 kcal/mol
15,ATTATCACGTGTAAGG,0.09 kcal/mol
16,TCAGTCACGTGTTGAG,0.08 kcal/mol
17,AGTAGCACGTGATGGT,0.1 kcal/mol
18,TATGACACGTGATATA,0.2 kcal/mol
19,TATTGCACGTGTAAAT,0.06 kcal/mol
20,GGCGTCACGTGGGCTT,0.03 kcal/mol
21,GGGATCACGTGTTCAT,0.3 kcal/mol
22,TGTTGCACGTGCGATA,0.02 kcal/mol
23,GATATCACGTGTTGGT,0.2 kcal/mol
24,GGAGACACGTGCGTTG,0.1 kcal/mol
25,AGTGTCACGTGAGTGT,0.26 kcal/mol
26,TTGGACACGTGCGTCG,0.03 kcal/mol

row,Sequence,relative binding free energy
1,AGGGTCACGTGCCTGT,0.09 kcal/mol
2,TGTGTCACGTGGGACA,-0.06 kcal/mol
3,ACTGTCACGTGTGTGG,0.1 kcal/mol
4,AGGGACACGTGCCGTG,-0.01 kcal/mol
5,CGGCTCACGTGGAGGA,0.33 kcal/mol
6,GATCACACGTGGGTTG,-0.06 kcal/mol
7,TTTTGCACGTGATGCG,-0.01 kcal/mol
8,CATTTCACGTGTAGAG,0.12 kcal/mol
9,TTGATCACGTGTTAGT,0.13 kcal/mol
10,AGACGCACGTGTGGGA,-0.01 kcal/mol
11,TTCGTCACGTGAGTGG,0.32 kcal/mol
12,TGGCGCACGTGTATGA,-0.12 kcal/mol
13,AAGATCACGTGGCGTG,0.03 kcal/mol
14,ATTGGCACGTGTGATT,-0.13 kcal/mol
15,TCTTACACGTGGTTGG,0.08 kcal/mol
16,AGTGTCACGTGACGTT,0.35 kcal/mol
17,TACTACACGTGTGTGA,0.23 kcal/mol
18,GTTGTCACGTGTATGT,0.07 kcal/mol
19,CTTTACACGTGGTGTG,0.01 kcal/mol
20,TTACTCACGTGATAGG,0.26 kcal/mol
21,GCGGACACGTGTGGTA,0.22 kcal/mol
22,GCTGTCACGTGGTGAG,0.21 kcal/mol
23,TAAGTCACGTGTGTCA,-0.02 kcal/mol
24,TTCGGCACGTGTGGTG,-0.06 kcal/mol
25,AGGCGCACGTGGTCGT,-0.14 kcal/mol
26,GCAGTCACGTGTTATG,0.18 kcal/mol

row,Sequence,relative binding free energy
1,GAAAGCACGTGGTGGC,-0.08 kcal/mol
2,GGTCTCACGTGTGTGT,0.3 kcal/mol
3,AATGACACGTGAGTGT,0.22 kcal/mol
4,TTGGTCACGTGTGCGA,0.1 kcal/mol
5,AGTAACACGTGGGTGT,-0.15 kcal/mol
6,GGATACACGTGAGGTA,0.22 kcal/mol
7,GTTCTCACGTGAGTGA,0.27 kcal/mol
8,CGATGCACGTGTTTTG,0.04 kcal/mol
9,TGTTACACGTGGATTA,0.11 kcal/mol
10,CGTATCACGTGTGGAA,0.21 kcal/mol
11,GTTTTCACGTGAGTAA,0.46 kcal/mol
12,ATTGCCACGTGAGTTT,0.11 kcal/mol
13,GCGTGCACGTGGGGCT,-0.17 kcal/mol
14,GAGTTCACGTGAATTG,0.47 kcal/mol
15,GGGGACACGTGGCTTA,0.01 kcal/mol
16,GATATCACGTGGTCGT,0.03 kcal/mol
17,GAGATCACGTGTCGGT,0.32 kcal/mol
18,AAATACACGTGGGGGC,0.05 kcal/mol
19,GGTGACACGTGTAGGC,0.15 kcal/mol
20,GGTGTCACGTGAGTTT,0.38 kcal/mol
21,TTAGCCACGTGGATTG,-0.06 kcal/mol
22,CGGTGCACGTGTGGTG,0.02 kcal/mol
23,GGTGTCACGTGATTAA,0.23 kcal/mol
24,TTTCACACGTGTGGGT,0.16 kcal/mol
25,GGGTACACGTGCGATG,-0.06 kcal/mol
26,GCTGACACGTGGGGAG,0.03 kcal/mol

row,Sequence,relative binding free energy
1,GTGGGCACGTGCAGCG,-0.27 kcal/mol
2,TCAGACACGTGGGGTT,-0.12 kcal/mol
3,TCTGCCACGTGGTGTG,-0.13 kcal/mol
4,AAGTTCACGTGAAAAG,0.62 kcal/mol
5,CTTGTCACGTGGTAAT,0.11 kcal/mol
6,GTAGACACGTGTGGTC,0.05 kcal/mol
7,TAAAACACGTGTTGTA,0 kcal/mol
8,TGGAGCACGTGTTGAA,0.05 kcal/mol
9,GTGCGCACGTGTCTGT,-0.16 kcal/mol
10,GAGGGCACGTGCTGTT,0.07 kcal/mol
11,TGGTGCACGTGTCGGG,0.02 kcal/mol
12,TGAAACACGTGTATTT,0.06 kcal/mol
13,TGGAACACGTGGATTG,0.08 kcal/mol
14,TTTATCACGTGGTCTC,0.09 kcal/mol
15,TTGGGCACGTGCTAGA,-0.06 kcal/mol
16,AGGTTCACGTGTGGCC,0.39 kcal/mol
17,GTTTGCACGTGCGACG,0.05 kcal/mol
18,ATTTACACGTGGTCGG,-0.07 kcal/mol
19,AAAAGCACGTGAGGTA,0.19 kcal/mol
20,CCTGGCACGTGTCGTG,0.09 kcal/mol
21,TTCGTCACGTGATGTT,0.12 kcal/mol
22,TTGATCACGTGGGCAG,-0.12 kcal/mol
23,GTTACCACGTGTCGGG,-0.04 kcal/mol
24,TGTTTCACGTGGTATA,0.16 kcal/mol
25,GGTAGCACGTGGTGTA,-0.13 kcal/mol
26,ATCTTCACGTGTTAGG,0.2 kcal/mol

row,Sequence,relative binding free energy
1,GCAGGCACGTGGTAGA,-0.04 kcal/mol
2,ATTTTCACGTGTGGTA,0.23 kcal/mol
3,AGAGCCACGTGGCGTG,-0.08 kcal/mol
4,GTAGTCACGTGGTGTG,0.16 kcal/mol
5,TGCTTCACGTGTCGGT,0.23 kcal/mol
6,TAGTGCACGTGAAGTT,0.33 kcal/mol
7,TTGAACACGTGGTGAT,-0.06 kcal/mol
8,CATGCCACGTGGTTGT,-0.08 kcal/mol
9,TGGAACACGTGCTTTG,-0.05 kcal/mol
10,AGTTGCACGTGATATG,0.05 kcal/mol
11,TATATCACGTGGGGCT,-0.01 kcal/mol
12,TGCTTCACGTGGGCGG,0.06 kcal/mol
13,ATTGACACGTGGATTA,0.03 kcal/mol
14,TTCAGCACGTGGGATT,-0.18 kcal/mol
15,AGGGTCACGTGGAGCC,0.17 kcal/mol
16,TCTGTCACGTGTGTAT,-0.03 kcal/mol
17,TGTAGCACGTGCATGT,-0.16 kcal/mol
18,TGAAACACGTGTAGTA,0.09 kcal/mol
19,TTAGGCACGTGGAGAA,-0.12 kcal/mol
20,AGAGTCACGTGTCTTT,0.15 kcal/mol
21,TATGACACGTGTGTTT,-0.02 kcal/mol
22,GTGTACACGTGCAGGG,-0.07 kcal/mol
23,ATGAGCACGTGGGACT,-0.09 kcal/mol
24,TAATGCACGTGCGTTG,-0.04 kcal/mol
25,GTGATCACGTGGGAGC,0.09 kcal/mol
26,ATCGACACGTGTGGAG,0.1 kcal/mol

row,Sequence,relative binding free energy
1,TAGATCACGTGGTGGC,0.15 kcal/mol
2,CTATGCACGTGTTGTT,-0.15 kcal/mol
3,TGGGTCACGTGAGCGT,0.26 kcal/mol
4,TAAACCACGTGGGGGT,-0.18 kcal/mol
5,TCCTGCACGTGGGTAG,-0.12 kcal/mol
6,TCTTACACGTGATGGT,0.17 kcal/mol
7,TTTGTCACGTGCTGCA,-0.08 kcal/mol
8,TGTTTCACGTGGGTGA,0.21 kcal/mol
9,TTTAGCACGTGGGCTA,-0.27 kcal/mol
10,TGTCGCACGTGAGTTA,0.13 kcal/mol
11,TGAATCACGTGTGCAT,0.15 kcal/mol
12,GTGAACACGTGCATGT,0.08 kcal/mol
13,AATGGCACGTGGGGGT,-0.16 kcal/mol
14,CTTTTCACGTGTGTGC,0.22 kcal/mol
15,GGTTTCACGTGCTTGT,0.27 kcal/mol
16,AGAAGCACGTGTTGTA,-0.15 kcal/mol
17,GGTGCCACGTGTTGTC,-0.02 kcal/mol
18,TGGGGCACGTGTGCTT,-0.07 kcal/mol
19,TGCGGCACGTGGAGAG,-0.13 kcal/mol
20,AGTGGCACGTGTGCAT,-0.05 kcal/mol
21,AGGCTCACGTGGTGCG,0.18 kcal/mol
22,TCTTTCACGTGCTAGT,0.24 kcal/mol
23,CTCGGCACGTGTGGGG,-0.12 kcal/mol
24,ATGTTCACGTGGTGAG,0.22 kcal/mol
25,GGTAGCACGTGATTGT,0.23 kcal/mol
26,GAGTTCACGTGGATGT,0.32 kcal/mol

row,Sequence,relative binding free energy
1,ATAAGCACGTGGAGTG,-0.19 kcal/mol
2,ACGGTCACGTGGGGAT,-0.01 kcal/mol
3,TAGTTCACGTGGGAAG,0.32 kcal/mol
4,ACGGGCACGTGGCGTA,-0.19 kcal/mol
5,ATGGTCACGTGGGATC,0.05 kcal/mol
6,TTATGCACGTGGGGCC,-0.23 kcal/mol
7,GTAGGCACGTGGTAAT,-0.19 kcal/mol
8,TTTTGCACGTGGCTGC,0.01 kcal/mol
9,GGTGACACGTGCCTGG,-0.01 kcal/mol
10,CTGCGCACGTGTTTGG,-0.03 kcal/mol
11,ACTTTCACGTGTTCGG,0.24 kcal/mol
12,TCATGCACGTGTGTTT,0 kcal/mol
13,AATTGCACGTGAGGTT,0.22 kcal/mol
14,GTCAACACGTGGTTGT,-0.02 kcal/mol
15,TATTGCACGTGTTAAA,0 kcal/mol
16,GTATTCACGTGTCGTA,0.41 kcal/mol
17,TAAAACACGTGGGAGT,-0.12 kcal/mol
18,ATCGGCACGTGTTAGT,0 kcal/mol
19,TGATACACGTGGGACT,0.06 kcal/mol
20,ATGTGCACGTGGGAGA,-0.3 kcal/mol
21,AGTTACACGTGAGAGT,0.27 kcal/mol
22,TAGCGCACGTGGGTAG,-0.31 kcal/mol
23,ATATGCACGTGTAGCG,-0.02 kcal/mol
24,GATTGCACGTGATGGG,0.2 kcal/mol
25,CGATGCACGTGCTGGT,-0.01 kcal/mol
26,GATTGCACGTGGTTTT,0.09 kcal/mol

row,Sequence,relative binding free energy
1,GGGTTCACGTGGCATT,0.2 kcal/mol
2,TATTTCACGTGGCATG,0.2 kcal/mol
3,GGTGACACGTGGGGAC,-0.02 kcal/mol
4,ATCTGCACGTGTATGA,0.14 kcal/mol
5,AGGTGCACGTGCATGA,-0.11 kcal/mol
6,TGGGTCACGTGTTCTT,0.03 kcal/mol
7,TGATGCACGTGCGCGG,-0.19 kcal/mol
8,TTGGACACGTGTTCGA,0.06 kcal/mol
9,AGGGTCACGTGATGTT,0.21 kcal/mol
10,TGGGCCACGTGGCAAG,-0.16 kcal/mol
11,CTGGGCACGTGTAGTA,-0.06 kcal/mol
12,AATGGCACGTGGCGTA,-0.31 kcal/mol
13,TATACCACGTGCAGGG,0.1 kcal/mol
14,GCTTTCACGTGGTGAT,0.28 kcal/mol
15,GTGTGCACGTGATGGC,0.12 kcal/mol
16,CGTTCCACGTGTGTTG,-0.01 kcal/mol
17,TTTTTCACGTGAATGT,0.45 kcal/mol
18,TAGTTCACGTGGGGCT,0.19 kcal/mol
19,TACGGCACGTGGGTGG,-0.19 kcal/mol
20,TGTGGCACGTGCGCTA,-0.23 kcal/mol
21,CGTGTCACGTGCAGTG,-0.03 kcal/mol
22,TGGCCCACGTGTGGTG,-0.21 kcal/mol
23,AGGAGCACGTGGAATT,0.11 kcal/mol
24,TGTTTCACGTGTCGGG,0.25 kcal/mol
25,TCAGGCACGTGCCGGG,-0.2 kcal/mol
26,ATTTGCACGTGGAGGA,0.03 kcal/mol

row,Sequence,relative binding free energy
1,TTTGTCACGTGAGTTA,0.28 kcal/mol
2,TTGGGCACGTGCCGTA,-0.2 kcal/mol
3,ATGGGCACGTGAGCAT,0 kcal/mol
4,TTAAGCACGTGGAAAG,-0.01 kcal/mol
5,AAACGCACGTGTGGAG,0.06 kcal/mol
6,TTGTGCACGTGTGTGC,-0.03 kcal/mol
7,GTGCGCACGTGTTTTT,-0.01 kcal/mol
8,ATGCACACGTGTAGGG,0.25 kcal/mol
9,CGGGACACGTGAGTAG,0.2 kcal/mol
10,TTTCTCACGTGCTCGG,0.31 kcal/mol
11,AGTGGCACGTGGATGG,0 kcal/mol
12,TCCGGCACGTGTGGTG,-0.08 kcal/mol
13,CGGGTCACGTGTCTTG,0.13 kcal/mol
14,GAGTGCACGTGGCTTT,-0.07 kcal/mol
15,ACCGGCACGTGGGGGG,-0.27 kcal/mol
16,TCGGCCACGTGGTTTG,-0.15 kcal/mol
17,ATCTTCACGTGGTTTT,0.34 kcal/mol
18,TAAGTCACGTGGTCGT,-0.02 kcal/mol
19,AGCTACACGTGTTTGT,0.1 kcal/mol
20,TGTCTCACGTGATGAT,0.43 kcal/mol
21,GGGTACACGTGGGGTT,0.09 kcal/mol
22,ATGAGCACGTGTCGGG,-0.02 kcal/mol
